The values that follow come from article PMC3415985 (Journal of molecular biology, 2012).

B1: BirA D197A (enzyme)
chain: not shown
B2: BirA P143A (enzyme)
chain: not shown
B3: BirA R170A (enzyme)
chain: not shown
B4: BirA G193A (enzyme)
chain: not shown
B5: BirA K194A (enzyme)
chain: not shown
B6: BirA G196A (enzyme)
chain: not shown
B7: BirA N175A (enzyme)
chain: not shown
B8: BirA V171A (enzyme)
chain: not shown
B9: BirA Q141A (enzyme)
chain: not shown
B10: BirA K283A (enzyme)
chain: not shown
B11: BirA T195A (enzyme)
chain: not shown
B12: BirA D282A (enzyme)
chain: not shown
B13: BirA E140A (enzyme)
chain: not shown

This data set deals with the molecule itself. Kind of data set: AUC.
Usually Kd stands for a measure of binding affinity in units of concentration. Protein B1 registered a Kd of 500 µM.

With B2, the Kd turned out to be 40 µM.

As to B3, the Kd was found to be 40 µM.

As for B4, binding was put at a Kd of 0.5 µM.

For B5, the Kd is ≤ 0.01 µM.

For the protein B6, binding was characterised by a dissociation constant (Kd) of 5 µM.

The protein B7 returned a Kd of 60 µM.

Take B8: the affinity, expressed as Kd, was 0.3 µM.

For the protein B9, the Kd worked out at 3 µM.

B10: the Kd was found to be 12 µM.

For B11, the dissociation constant (Kd) amounted to 100 µM.

On to B12, for which the Kd amounted to 2 µM.

For B13, the Kd amounted to 22 µM.
